The source gives no read counts; variants with many changes may rest on few reads.
B1: LINE1-mini (parent)
chain: GGCAGAGCUCAACACAGCGUGGCAAAGUGGCUGUGGCUAGACUGCC

Variants of: B1
Assay: self-cleavage, relative activity (ratio to wild type); higher = more cleavage; in vitro, sequencing; the parent is a self-cleaving ribozyme

Variant	self-cleavage
C10U C13A C15U G33C	0.04
C10U A25G C37G U43A	0.05
C10U C45A C46A	0.06
A11G A26U C31A U43A	0.01
C10U G17A G22A	1.06
C10U A24C G27C G30U G33A	0.03
C10G U28C C42G	0.01
C10U A14G G22U U32A	0.01
A11C G19A C42A	0.02
C10U A25U A41C G44A C45A	0.01
A11G C15G C37U A41U C42A	0.01
C10U G22U G44A	0.19
A11G G19A A25G	0.02
C10U G40U C45G	0
C10U A25U C46G	0.24
C10U C13A G30U U43G G44A	0.01
C10U C23U A24G G29C U32A	0.38
C10U A11G A12U C23A U34C	0
A11C C15A A24U A25C U28A G29A G35A A41G	0.01
A11C U28G C31U G35U G36A C45A	0
A11C A16C G29U C45A	0

Variant	self-cleavage
C10U A14U C15G	0.1
A11C C13U C42U C45A	0.02
C10U U20A G29U C46A	0.07
C10U G19U G30C	1.12
A11G A16C G21A	0
C10U A26C G33U	0.13
A11G G22A C46G	0.02
A11C A12C A16C	0.04
C10U A16G G17U	0.14
A11C C18U C31G	0.01
C10U G17A A24U C31A	0.12
C10U G35A A39G	0
A11C G19U C31A G36A	0
A11C A25G A26C U28C	0.01
C10U C13G A14G A41C	0
C10U A11U G21A C31U	0.38
C10U G22U C23U G35C C45A	0.01
C10U A16U G19C G35U A39U G44U C45U	0.01
C10U A11C A39G	0.01
C10U C15G G35U C42U G44C	0.03
C10U G29U A41G	0.04

Variant	self-cleavage
C10U G22A A24G G33C C45G	0.03
C10U G19A G22A	0.82
A11G A16U U20G U34G U43C	0
C10U G19U G35C	0.04
A11G A16C G19A G30U	0
A11C A14U C23U G36A C42A	0
C10G G30U G33U	0.04
C10U G22A U34C G40U	0.01
A11G C13U A26C C31U G33A G40A	0
C10U C13G A24C C31A	0.08
C10G U28A U32C C46A	0
A11C C13U G30U C46U	0.15
C10U G22U G36C	0.03
A11C A16U G22U	0
C10U G40U C46A	0.03
C10G U32A C46A	0
A11G G19U G22A C45G	0.02
C10G U32G G35A	0
C10G U32A C42U	0
A11C A24G G27A G33U G36U A41U C45U	0.01
C10U G40C G44A	0.06

Variant	self-cleavage
C10U A26C U32G G35A C45G	0.02
A11G C15U A25U	0.03
A11C G17C A25G U38C	0.02
C10U G40A G44U	0.02
C10U C13A C15A G33U C37G	0.03
A11C C18U G35C G36A A39C	0.02
C10U U28G U38C	0.18
A11C C15U U28A	0.03
A11C A39U G40A	0
A11G G17U A41G	0.01
A11C C37A A39U C45U	0.02
A11C C15U G21C C42U	0.01
A11C U32C U34A A41U	0.01
A11C G35U G40U C42U	0.01
C10U A12G C13G G33U C45A	0.03
C10U U38G U43A	0.05
C10U A12G U43G	0
A11G G21U G29C G35U	0.01
C10U C31G C45A	0.04
A11C C15U G44U	0.04
A11C C13A A39G	0.02

— the RNAGym collection of RNA variant scans (doi:10.7554/elife.90254)
